“And” between values parts separate entries of the source, which are not always exact repeats. Identical values can stand only once. Like-named read-outs stand apart in the source and are kept apart here. At least one peptide structure holds a part that was inferred or is arguable (an end, a ring closure or a residue). Starred links: 1 amine or outer side, 2 acyl side, 3 side chain; linkers in the order of their positions; H or OH if unused. Non-standard residues stand in square brackets, D forms with d. Residues, ends and D or L forms follow the SMILES beside them. Groups on a side chain read outwards from the residue. *: point of attachment. X1 = CC(C)(CCNC(=N)N)[C@H](N[*:1])C(=O)[*:2]; C20 diacid = O=C(O)CCCCCCCCCCCCCCCCCCC(=O)*; Dip = N[C@H](C(=O)O)C(c1ccccc1)c1ccccc1; γGlu = O=C(O)[C@H](CCC(=O)[*:2])N[*:1]; Stearoyl = CCCCCCCCCCCCCCCCCC(=O)*; αMeF = C[C@](N)(Cc1ccccc1)C(=O)O; Lauroyl = CCCCCCCCCCCC(=O)*; PEG2 = NCCOCCOCCC(=O)O; AEEA = NCCOCCOCC(=O)O; Aib = CC(C)(N)C(=O)O
Key:
[1] = target: human GLP-1 receptor (hGLP-1R) (Homo sapiens, UniProt P43220); assay: cAMP production (HTRF) in CHO cells expressing hGLP-1R; assay type: cell-based; set-up: expressed in transfected cells; settings: for % Relative Potency Ratio: % GLP-1R activity relative to GLP-1 / % GlucR activity relative to glucagon; for EC50: cAMP in CHO hGLP-1R cells, geometric mean
human GLP-1 receptor (hGLP-1R), sequence (P43220 24-463): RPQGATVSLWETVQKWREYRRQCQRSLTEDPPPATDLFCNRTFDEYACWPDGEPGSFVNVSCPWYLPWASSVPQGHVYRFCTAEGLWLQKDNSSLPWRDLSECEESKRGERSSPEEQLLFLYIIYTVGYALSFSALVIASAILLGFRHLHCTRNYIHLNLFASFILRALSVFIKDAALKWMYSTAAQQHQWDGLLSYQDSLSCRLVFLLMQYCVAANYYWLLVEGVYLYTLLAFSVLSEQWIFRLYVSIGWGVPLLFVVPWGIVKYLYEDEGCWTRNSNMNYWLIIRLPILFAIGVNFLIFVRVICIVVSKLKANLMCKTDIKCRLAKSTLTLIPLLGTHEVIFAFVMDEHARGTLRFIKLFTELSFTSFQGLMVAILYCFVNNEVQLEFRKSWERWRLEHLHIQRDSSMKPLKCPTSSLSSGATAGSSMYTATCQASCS
Method in brief: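 Potency values represent EC50 from 4-parameter logistic curves of HTRF % Delta F signal. Receptor-expressing CHO cells (hGCGR 2×10^5 cells/mL, hGLP-1R 1×10^5 cells/mL) were exposed for 30 min at room temperature before two-step cAMP detection.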

[2] = Mouse acute food intake study; assay type: in vivo; settings: male C57Bl/6 mice, s.c., cumulative food intake at 24 hr vs vehicle
Method: Male C57Bl/6 mice obtained from Jackson Laboratories or Charles River at 8-9 weeks of age and were housed one per cage in BioDaq (Research Diets) cages. Mice were placed on Alpha Dri bedding, standard chow diet (Envigo, 2018) and given water pouches. Mice were allowed to acclimate for 1-2 weeks. Body weight was measured to ensure appropriate acclimation. After acclimation, mice were sham dosed a minimum of 2 times prior to initiation of food intake study. On study day, mice were placed in clean cage bottoms, weighed, and fasted for 6-8 hours. Mice were sorted into groups based on average 24-hour food intake data and body weight. 1-2 hours prior to lights out, mice were dosed subcutaneously with one vehicle or test peptide dissolved in an appropriate vehicle at 5 mL/kg. Mice were left undisturbed and allowed access to food and water for 48 hours. Automated food intake was monitored in the BioDaq system was monitored during this time. Discrete food intake data was exported into MS Excel from which cumulative food intake data was generated and analyzed.

[3] = target: human glucagon receptor (hGCGR) (Homo sapiens, UniProt P47871); assay: cAMP production (HTRF) in CHO cells expressing hGCGR; assay type: cell-based; set-up: expressed in transfected cells; settings: geometric mean, read-out: hGluc-R EC50
human glucagon receptor (hGCGR), sequence (P47871 26-477): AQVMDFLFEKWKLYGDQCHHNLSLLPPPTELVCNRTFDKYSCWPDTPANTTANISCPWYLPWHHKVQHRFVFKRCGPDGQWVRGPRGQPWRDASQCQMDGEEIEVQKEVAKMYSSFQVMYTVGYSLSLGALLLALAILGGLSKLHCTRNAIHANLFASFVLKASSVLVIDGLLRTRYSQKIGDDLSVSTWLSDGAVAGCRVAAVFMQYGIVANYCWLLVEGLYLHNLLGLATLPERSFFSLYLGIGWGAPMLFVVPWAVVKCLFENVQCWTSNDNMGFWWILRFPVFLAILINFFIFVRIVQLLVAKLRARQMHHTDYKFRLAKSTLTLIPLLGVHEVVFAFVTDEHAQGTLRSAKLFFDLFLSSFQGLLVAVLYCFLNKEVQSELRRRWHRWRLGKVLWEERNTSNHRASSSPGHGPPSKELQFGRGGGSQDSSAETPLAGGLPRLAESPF
Method: Cells were re-suspended in assay buffer at a batch-dependent optimized concentration (typically hGLP-1R cells at 1×10^5 cells/mL, hGCGR cells at 2×10^5 cells/mL).
Cells were added to the assay plate using a multidrop dispenser and incubated at room temperature for 30 minutes before measuring the cAMP level using a cAMP dynamic 2 homogeneous time resolved Fluorescence (HTRF) kit (Cisbio Bioassays #62AM4PEJ) following the two-step protocol as per manufacturer's recommendations. In brief, anti-cAMP cryptate (donor fluorophore) and cAMP-d2 (acceptor fluorophore) were made up separately by diluting each 1 in 20 in conjugate and lysis buffer provided in the kit. Anti-CAMP cryptate was added to all wells of the assay plate, followed by cAMP-d2 added to all wells except non-specific binding (NSB) wells (to which conjugate and lysis buffer was added).
Data was transformed to % Delta F as described in the manufacturer's guidelines and analyzed by 4-parameter logistic fit to determine EC50 values.

[4] = tested on: wildtype (WT) mice; assay: Glucose change in wildtype mice; assay type: in vivo, mouse; settings: s.c., 120 min vs 0 min
Method: (§1) GLP-1R knockout (KO) and wildtype (WT) mice at 8-14 weeks of age were singly housed on standard chow diet (Envigo, 2918) and automatic water. They acclimated for a minimum of ˜1-2 weeks, and mice were sorted into groups (n=4-8/group) based on body weight. On day of study, mice were fasted briefly for 2 hrs prior to study start. In some studies, mice were pre-treated with octreotide (BaChem, 10 mg/kg) at 30 minutes prior to peptide injection. Glucose was measured via glucometer at various timepoints including-30 min (prior to octreotide when used in studies), 0 min (before peptide dose), 30, 60, 120, 180, 240, and 360 minutes. Since these studies are acute in nature, mice were re-used for multiple studies (no more than 3) and always allowed at least a minimum wash-out period of 1 week.

[5] = tested on: GLP-1R knockout (KO) mice; assay: Glucose change in GLP-1R knockout mice; assay type: in vivo, mouse; settings: GLP-1R KO mice, s.c., 120 min vs 0 min
Method: as §1, with “They” for “GLP-1R knockout (KO) and wildtype (WT) mice at 8-14 weeks of age were singly housed on standard chow diet (Envigo, 2918) and automatic water. They”

[6] = 10 nmol/kg, somatostatin pretreatment (octreotide) 30 min prior to cpd
[7] = 30 nmol/kg, somatostatin pretreatment (octreotide) 30 min prior to cpd
[8] = 10 nmol/kg, no somatostatin pretreatment
[9] = 30 nmol/kg, no somatostatin pretreatment

Compound: CC[C@H](C)[C@H](NC(=O)C(C)(C)NC(=O)[C@H](CCC(N)=O)NC(=O)[C@@H](NC(=O)[C@](C)(Cc1ccccc1)NC(=O)[C@H](CC(=O)O)NC(=O)[C@H](CCCCNC(=O)COCCOCCNC(=O)COCCOCCNC(=O)CC[C@H](NC(=O)CC[C@H](NC(=O)CCCCCCCCCCCCCCCCCCC(=O)O)C(=O)O)C(=O)O)NC(=O)[C@H](C)NC(=O)[C@H](C)NC(=O)[C@H](CCCNC(=N)N)NC(=O)[C@H](CO)NC(=O)[C@H](CC(=O)O)NC(=O)[C@H](CC(C)C)NC(=O)[C@](C)(Cc1ccccc1)NC(=O)[C@H](CCCCN)NC(=O)[C@H](CO)NC(=O)[C@@H](NC(=O)[C@H](CC(=O)O)NC(=O)[C@H](CO)NC(=O)[C@@H](NC(=O)[C@](C)(Cc1ccccc1)NC(=O)[C@H](CO)NC(=O)CNC(=O)[C@H](Cc1c[nH]cn1)NC(=O)C(C)(C)NC(=O)[C@@H](N)Cc1c[nH]cn1)[C@@H](C)O)C(C)C)C(C)C)C(=O)N[C@@H](C)C(=O)N[C@@H](CCC(=O)O)C(=O)N[C@H](C(N)=O)[C@@H](C)O [Peptide 299] (H-H[Aib]HGS[αMeF]TSDVSK[αMeF]LDSRAAK([AEEA-AEEA-γGlu-γGlu-C20 diacid])D[αMeF]VQ[Aib]IAET-NH2)
- % Relative Potency Ratio ([1]; Table 7): 5.0
- 24 hr % Vehicle Food Intake ([2]; dose 30 nmol/kg): 43.7%

Compound: CCCCCCCCCCCC(=O)N[C@@H](CCC(=O)N[C@@H](CCC(=O)NCCOCCOCCC(=O)NCCOCCOCCC(=O)NCCCC[C@H](NC(=O)[C@H](CO)NC(=O)[C@H](CC(=O)O)NC(=O)[C@H](CC(C)C)NC(=O)[C@@H](NC(=O)[C@H](CCCCN)NC(=O)[C@H](CO)NC(=O)[C@@H](NC(=O)[C@H](CC(=O)O)NC(=O)[C@H](CO)NC(=O)[C@@H](NC(=O)[C@](C)(Cc1ccccc1)NC(=O)[C@H](CO)NC(=O)CNC(=O)[C@H](CCC(N)=O)NC(=O)[C@H](CO)NC(=O)[C@@H](N)Cc1c[nH]cn1)[C@@H](C)O)C(C)C)C(c1ccccc1)c1ccccc1)C(=O)N[C@@H](C)C(=O)N[C@@H](C)C(=O)N[C@@H](CCC(N)=O)C(=O)N[C@@H](CC(=O)O)C(=O)N[C@@](C)(Cc1ccccc1)C(=O)N[C@H](C(=O)N[C@@H](CCC(=O)O)C(=O)NC(C)(C)C(=O)N[C@H](C(=O)N[C@H](C(=O)N[C@@H](CC(N)=O)C(=O)N[C@H](C(N)=O)[C@@H](C)O)[C@@H](C)CC)[C@@H](C)CC)C(C)C)C(=O)O)C(=O)O [Peptide 62] (H-HSQGS[αMeF]TSDVSK[Dip]LDSK([PEG2-PEG2-γGlu-γGlu-Lauroyl])AAQD[αMeF]VE[Aib]IINT-NH2; N-terminus assumed)
- EC50 ([1]; Table 6, peptides modified at position 17): 0.0101 nM
- % Relative Potency Ratio ([1]; Table 6): 3.0
- 24 hr % Vehicle Food Intake ([2]; dose 10 nmol/kg): 52.7%
- EC50 ([3]; Table 6, peptides modified at position 17, cAMP in CHO hGCGR cells): 0.0152 nM

Compound: CCCCCCCCCCCCCCCCCC(=O)N[C@@H](CCC(=O)N[C@@H](CCC(=O)NCCOCCOCCC(=O)NCCOCCOCCC(=O)NCCCC[C@H](NC(=O)[C@H](CCCCN)NC(=O)[C@H](CO)NC(=O)[C@@H](NC(=O)[C@H](CC(=O)O)NC(=O)[C@H](CO)NC(=O)[C@@H](NC(=O)[C@](C)(Cc1ccccc1)NC(=O)[C@H](CO)NC(=O)CNC(=O)[C@H](CCC(N)=O)NC(=O)[C@H](CO)NC(=O)[C@@H](N)Cc1c[nH]cn1)[C@@H](C)O)C(C)C)C(=O)N[C@@H](CC(C)C)C(=O)N[C@@H](CC(=O)O)C(=O)N[C@@H](CO)C(=O)N[C@H](C(=O)N[C@@H](C)C(=O)N[C@@H](C)C(=O)N[C@@H](CCC(N)=O)C(=O)N[C@@H](CC(=O)O)C(=O)N[C@@](C)(Cc1ccccc1)C(=O)N[C@H](C(=O)N[C@@H](CCC(=O)O)C(=O)NC(C)(C)C(=O)N[C@@H](CC(C)C)C(=O)N[C@@H](C)C(=O)N[C@@H](CC(N)=O)C(=O)N[C@H](C(N)=O)[C@@H](C)O)C(C)C)C(C)(C)CCNC(=N)N)C(=O)O)C(=O)O [Peptide 399, HSQGS(αMePhe)TSDVSKK((PEG)2-(PEG)2-γE-γE-Stearoyl)13LDS(β-dimethylArg)AAQD(αMePhe)VE(Aib)LANT-amide] (H-HSQGS[αMeF]TSDVSKK([PEG2-PEG2-γGlu-γGlu-Stearoyl])LDS[X1]AAQD[αMeF]VE[Aib]LANT-NH2; N-terminus assumed)
- % Relative Potency Ratio [1]: 16.4
- WT % glucose change 120 min [4, 6]: −35.4%
- WT % glucose change 120 min [4, 7]: −45.0%
- 24 hr % Vehicle Food Intake ([2]; dose 10 nmol/kg): 72.3%
- EC50 ([3]; cAMP, CHO cells, 0.1% BSA): 0.00557 nM
- GLP-1R KO % glucose change 120 min [5, 6]: 151.0%
- GLP-1R KO % glucose change 120 min [5, 7]: 121.3%

Compound: CC[C@H](C)[C@H](NC(=O)C(C)(C)NC(=O)[C@H](CCC(N)=O)NC(=O)[C@@H](NC(=O)[C@](C)(Cc1ccccc1)NC(=O)[C@H](CC(=O)O)NC(=O)[C@H](CCCCNC(=O)COCCOCCNC(=O)COCCOCCNC(=O)CC[C@H](NC(=O)CC[C@H](NC(=O)CCCCCCCCCCCCCCCCCCC(=O)O)C(=O)O)C(=O)O)NC(=O)[C@H](C)NC(=O)[C@H](C)NC(=O)[C@H](CCCNC(=N)N)NC(=O)[C@H](CO)NC(=O)[C@H](CC(=O)O)NC(=O)[C@H](CC(C)C)NC(=O)[C@](C)(Cc1ccccc1)NC(=O)[C@H](CCCCN)NC(=O)[C@H](CO)NC(=O)[C@@H](NC(=O)[C@H](CC(=O)O)NC(=O)[C@H](CO)NC(=O)[C@@H](NC(=O)[C@](C)(Cc1ccccc1)NC(=O)[C@H](CO)NC(=O)CNC(=O)[C@H](Cc1c[nH]cn1)NC(=O)C(C)(C)NC(=O)[C@@H](N)Cc1c[nH]cn1)[C@@H](C)O)C(C)C)C(C)C)C(=O)N[C@@H](C)C(=O)N[C@@H](CC(N)=O)C(=O)N[C@H](C(N)=O)[C@@H](C)O [Peptide 229, H-Aib-H-G-S-αMePhe-T-S-D-V—S-K-αMePhe-L-D-S-R-A-A-K (E-(O2Oc)-(O2Oc)-γE-γE-C20diacid) 20-D-αMePhe-V-Q-Aib-I-A-N-T-amide] (H-H[Aib]HGS[αMeF]TSDVSK[αMeF]LDSRAAK([AEEA-AEEA-γGlu-γGlu-C20 diacid])D[αMeF]VQ[Aib]IANT-NH2; N-terminus assumed)
- EC50 ([1]; Table 7, peptides modified at position 20): 0.0685 nM
- % Relative Potency Ratio ([1]; Table 7): 5.7
- WT % glucose change 120 min [4, 8]: −36.7%
- WT % glucose change 120 min [4, 9]: −40.6%
- 24 hr % Vehicle Food Intake ([2]; dose 1 nmol/kg): 86.0%
- 24 hr % Vehicle Food Intake ([2]; dose 3 nmol/kg): 72.5%
- 24 hr % Vehicle Food Intake ([2]; dose 10 nmol/kg): 54.8% and 50.5%
- EC50 ([3]; Table 7, peptides modified at position 20, cAMP in CHO hGCGR cells): 0.198 nM
- GLP-1R KO % glucose change 120 min [5, 8]: 14.2%
- GLP-1R KO % glucose change 120 min [5, 9]: 44.5%

Source: patent US20250353891A1 (MEDIMMUNE LIMITED, priority 2022, published 2025)
